Source: ChEMBL document CHEMBL4888484, “Replenishing the malaria drug discovery pipeline: Screening and hit evaluation of the MMV Hit Generation Library 1 (HGL1) against asexual blood stage Plasmodium falciparum ,using a nano luciferase reporter read-out” (2022)
Screen size: about 150,000 compounds; about 540 (0.36%) showed an effect of 50% or more. The list shows a part of the results.

Tested on: Plasmodium falciparum
Assay: Primary screen in NF54 nanoGlo assay, in single point, at 2uM, 72h; a lower Z score goes with more inhibition
Format: functional, Erythrocyte
Conditions: timepoint 72 hour

Compound | % Inhibition | Z score
Cc1[nH]c2ccc(C(=O)OCC(=O)Nc3c(C)n(C)n(-c4ccccc4)c3=O)cc2c1C | -2% | 0.3
Cn1cc([C@@H]2CCCN2S(=O)(=O)Cc2cc(C#N)ccc2F)cn1 | -12% | 2.27
O=C1CCCN1CCN1C[C@H]2C[C@H](c3ccccc3)CC[C@@]2(C(=O)O)C1 | -7% | 0.82
Cc1ccc(C(=O)NCc2ccc(Cl)cc2)cc1-n1nnc2cccnc21 | -7% | 1.32
Cc1nc(-c2ccc(-c3noc(Cc4c[nH]c5ccccc45)n3)cc2)cs1 | -14% | 2.3
COC(=O)CNC(=O)CCOc1ccc(C)cc1C | -7% | 1.1
Cc1cc(O)c(C(=O)NC[C@@H](c2sccc2C)N(C)C)cn1 | -7% | 0.64
O=C(Nc1cccc2nonc12)c1c(F)cccc1F | -39% | 4.63
CN(C(=O)c1ccncc1)c1ccc(CNc2ccccn2)cc1 | -3% | 0.46
O=C1COC2CCN(C(=O)Cc3ccc(Cl)c(Cl)c3)CC2N1 (centres undefined) | -16% | 2.28
CCc1nsc(NC2CCC(=O)NC2C2CC2)n1 (centres undefined) | 11% | -1.24
Cc1ccc(CN(C)c2cc(N3CCOCC3)ncn2)cc1C | 3% | -0.65
O=C(CNc1ccc(F)c(F)c1F)NCc1ccc(F)cc1 | -6% | 1.15
COc1nc(C)cc(C)c1COc1ccc2c(c1)CCNC2=O | -3% | 0.51
O=S(=O)(N[C@@H]1C[C@H](Cn2cc(C3CC3)nn2)[C@@H](O)[C@H]1O)c1ccccc1 | 2% | -0.34
CN(Cc1cscn1)C(=O)NCc1cnn(CC(F)(F)F)c1 | -16% | 2.93
COc1ncc(Cl)c(N2CC(C)OC3(CCCOC3)C2)n1 (centres undefined) | -8% | 1.22
N#CCC(=O)c1c(Cl)cccc1Cl | -4% | 0.71
O=S(=O)(c1cc(-c2nnc(C3CCC3)o2)co1)N1CCC(N2CCCCC2)CC1 | -7% | 0.98
CC(C)OC[C@@H](O)CN1CCN(c2ccc(NC(=O)c3ccccc3)cn2)CC1 | -13% | 2.27
O=C1NCCC1N1C[C@@H]2C[C@H]1CN2Cc1ccccc1 (some centres undefined) | 4% | -0.63
Cc1nc(-c2ccc(C(=O)N3CCN(c4cccc(C)c4C)CC3)cc2)cs1 | 0% | 0.04

Compound | % Inhibition | Z score
COc1cc2c(cc1OC)CC(=O)N(CC(=O)N1CCc3nc[nH]c3C1)C=C2 | -9% | 1.17
Cc1ccccc1OC1(C(=O)O)CCN(c2ncnc3[nH]cnc23)CC1 | -8% | 0.98
Cc1cnn(CC(=O)N(C)C[C@H]2COCCO2)c1 | 5% | -0.45
CCS(=O)(=O)N1CCN(C[C@]2(c3cccc(F)c3)CCOC2)CC1 | 2% | -0.23
COC(=O)Nc1ccc(NC(=O)CCC(=O)OC(C)(C)C)cc1 | -14% | 1.29
CCCS(=O)(=O)NC[C@H](C)NCc1csc(CC)n1 | -5% | 0.94
CCCN(CC(=O)N(CCc1ccccc1)Cc1ccco1)S(=O)(=O)CC | -8% | 0.9
CCC(CC)C(=O)NCc1ccccc1OC | -21% | 2.76
COc1c(Br)cccc1C(=O)NCc1cc(C)nc(C)c1 | 9% | -1.63
CC(=O)N1CCN(CC(N)=NOCc2ccc(Cl)cc2)CC1 | -1% | 0.16
CN(Cc1nncn1C)C(=O)Cn1cnc2ccccc21 | -11% | 1.62
COc1cccc(OCCN2CCC(=O)N3CCC[C@H]23)c1 | 1% | -0.07
CCNc1nccnc1N(C)C[C@H]1CCCN1C | -14% | 2.64
Cn1nc(C(=O)N2CCC(N3CCC(Oc4ccccc4F)CC3)CC2)ccc1=O | -16% | 2.02
CCCc1cnc(NC(=O)C2OC(C)CC2C)s1 (centres undefined) | 0% | 0.02
CCc1nc(C)c(C(=O)N2C[C@@H]3NC(=O)CN(C4CC4)C(=O)CCc4ccc(c(OC)c4)Oc4cccc(c4)CO[C@H]3C2)o1 | 6% | -0.76
Clc1cnc(NCc2ccncc2)c(Br)c1 | -18% | 3.31
OCCc1csc(-c2cccc3c2CCO3)n1 | 4% | -0.41
O=S(=O)(NCC#CCOc1ccc2c(c1)OCO2)c1cccnc1 | -10% | 1.31
O=S(=O)(Cc1ccccc1F)N1CC(c2nc(CCOCc3ccccc3)no2)C1 | -7% | 0.84
Cc1ccc(C(=O)N2CC3(C[C@@H](c4nnc(-c5ccccc5)o4)N(C)C3)C2)cn1 | -13% | 1.57
O=C(N[C@H]1C[C@H](c2nnc(CO)n2C2CC2)C1)c1ccc(F)cc1Cl | -5% | 0.91

Compound | % Inhibition | Z score
COc1ccccc1-c1nnc([C@H]2CCN(Cc3ccc(C(=O)O)cc3)C2)o1 | -3% | 0.38
CCN(C[C@H](C)C(=O)OC)S(=O)(=O)c1ccc(C#N)cc1 | -7% | 0.96
Cc1ccc(C)n1NC(=O)c1cccs1 | 0% | -0.05
O=C(NCCc1nc(C2CC2)cc(C(F)(F)F)n1)c1ccsc1 | -1% | 0.14
C[C@H](NC(=O)c1ccsc1)c1ccccn1 | 13% | -1.76
CC(C)[C@H](CN(C)Cc1ccccc1)NCCC(=O)N1CCOCC1 | -5% | 0.7
COCCNc1nc2nonc2nc1N1CCC[C@H]1c1ccccc1OC | -13% | 1.63
CC(C)c1cc(CNS(=O)(=O)N2CCCC2)no1 | 3% | -0.4
C[C@@H](CNC(=O)c1cccnc1O)N1CCOCC1 | -4% | 0.58
CCCC[C@@H](COC)NC(=O)C(=O)Nc1cc(C)ccc1F | -18% | 1.62
Cc1noc(C[C@H]2CCCN(S(=O)(=O)CC34CCC(CC3)C4)C2)n1 | -17% | 2.37
O=C(c1ccc(N2CCCC2=O)cc1)N1CCC[C@H](n2cccn2)C1 | -11% | 1.52
CN(C(=O)c1c2c(nn1C)CCC2)c1cccc(S(C)(=O)=O)c1 | -7% | 1.44
CCn1nc(-c2ccc(C(N)=O)cc2)nc1N(C)C | -22% | 1.92
CCOC(=O)N1CCC(S(=O)(=O)Oc2ccc(F)c(F)c2)CC1 | -2% | 0.23
CCOC(=O)c1nc(-c2cccc(N)c2)n(C)c1C | -5% | 0.78
Cc1cc(CNC(=O)Cn2ncn(C)c2=O)ccn1 | -17% | 1.97
Cc1cnc(N2CCc3[nH]nc(C(C)C)c3C2)nc1N(C)C | -1% | 0.07
O=C(NC1CCN(Cc2ccccc2)CC1)c1ccoc1 | -4% | 0.58
CC(C(=O)NC1(C#N)CCCCC1)N1CCOC(c2nccs2)C1 (centres undefined) | -5% | 0.48
CCCCOc1ccc(-c2cc3c4nn(CC(=O)N(CC)c5ccccc5)c(=O)n4ccn3n2)cc1 | -14% | 1.96
CC(NC1CCN(C(C)C)C1=O)c1ccc(F)cc1N(C)C (centres undefined) | -10% | 1.34

Compound | % Inhibition | Z score
Cc1cncc(NC(=O)N(C)C[C@H]2CCCCO2)c1 | -4% | 0.74
CN(C[C@H](O)C(F)(F)F)C(=O)Nc1cc(F)ccc1OC(F)F | -7% | 1.1
COc1ccc(C(=O)Nc2cccc(C(=O)c3cccc(C)c3C)c2)cc1 | -5% | 0.58
O=C(c1cc(-c2cn[nH]c2)nc2ccccc12)N1CCN(c2ncccn2)CC1 | -5% | 0.65
c1ccc(CNc2ncnc3c2CCC3)nc1 | -19% | 2.37
O=C(NCc1ccccn1)[C@H]1CCCN(c2cc3c(nn2)CCC3)C1 | -11% | 2.11
CC[C@H](C)[C@@H]1NC(=O)N(CCCc2cc3c(OC)cc(OC)cc3[nH]2)C1=O | -7% | 0.85
O=C(Nc1ccc(C(F)(F)F)cc1)N1CCN(CC(O)C2CCCO2)CC1 (centres undefined) | 33% | -0.67
Nc1ncc(C(=O)N2CCN(CC3CCC3)CC2)s1 | 1% | -0.19
CCC(CC)[C@H](NC(C)=O)c1cccs1 | 3% | -0.41
CCCN(CCc1cccc(F)c1)C(=O)Cn1ccc(=O)n(C)c1=O | -11% | 1.03
O=C1CN(C(=O)c2ccc(Cl)cc2O)C2CCCCC2N1 (centres undefined) | -8% | 1.49
O=S(=O)(c1ccc(Br)c(-c2nc3ccccc3o2)c1)N1CCCCC1 | 29% | -3.32
CCn1ccc2cc(CN3CCN(CC4CC4)[C@@H](CCO)C3)ccc21 | -15% | 2.94
Cc1nc(C(C)(C)NCC(=O)N[C@](C)(C#N)C2CC2)sc1C | -3% | 0.27
CN1CCN(S(=O)(=O)c2ccc3c(c2)CCCC3=O)c2ccccc2C1 | -7% | 0.92
C[C@H](NCC1(c2ccc3c(c2)OCO3)CCCCC1)C(N)=O | -12% | 1.85
Cc1nnnn1CCC(=O)NCc1cc(COc2ccccc2)cs1 | -12% | 2.04
COC(=O)c1cnc(NC2CCCCCN(C(=O)C3CCC3(F)F)C2)nc1 (centres undefined) | 7% | -0.92
CC1CCCCC1(NC(=O)OC(C)(C)C)C(=O)NC1CCCC1 (centres undefined) | -7% | 0.91
CCc1ccc(CN2C(=O)N[C@@H](C(C)(C)C)C2=O)s1 | -2% | 0.26
